The record followed here is patent US20090104204A1 (CRUCELL HOLLAND B V, published 2009).

In experiment [1] the target is T1, bovine serum albumin (bovine, UniProt P02769).
T1 construct: Negative control antigen in the non-specific reactivity ELISA; also called BSA; BSA (1%)
As to the kind of experiment: ELISA, phage antibody on coated 1% BSA, anti-M13 peroxidase. The procedure:
(§1) To test for non-specific reactivity against non-bacterial antigens an ELISA assay was used. The complex antigens 5% FBS, 2% ELK and 1% BSA were coated overnight to Maxisorp™ ELISA plates. Selected single-chain phage antibodies were incubated for 15 minutes in an equal volume of PBS containing 1% BSA to obtain blocked phage antibodies. The plates were emptied, and the blocked single-chain phage antibodies were added to the wells. Incubation was allowed to proceed for two hours at room temperature, the plates were washed in PBS containing 0.1% v/v Tween-20 and bound phage antibodies were detected by means of OD 492 nm measurement using an anti-M13 antibody conjugated to peroxidase. As a control, the procedure was performed simultaneously without single-chain phage antibody, with a negative control single-chain phage antibody directed against West Nile virus envelope protein (SC04-374).

Experiment [2] deals with T1, bovine serum albumin. As to the kind of experiment: ELISA, phage antibody on coated 1% BSA, anti-M13 peroxidase, OD 492 nm. How it is done: as §1
For orientation: An ELISA detects its analyte on a solid surface through an enzyme-linked reagent.

T1 sequence (P02769 25-607 limits assumed): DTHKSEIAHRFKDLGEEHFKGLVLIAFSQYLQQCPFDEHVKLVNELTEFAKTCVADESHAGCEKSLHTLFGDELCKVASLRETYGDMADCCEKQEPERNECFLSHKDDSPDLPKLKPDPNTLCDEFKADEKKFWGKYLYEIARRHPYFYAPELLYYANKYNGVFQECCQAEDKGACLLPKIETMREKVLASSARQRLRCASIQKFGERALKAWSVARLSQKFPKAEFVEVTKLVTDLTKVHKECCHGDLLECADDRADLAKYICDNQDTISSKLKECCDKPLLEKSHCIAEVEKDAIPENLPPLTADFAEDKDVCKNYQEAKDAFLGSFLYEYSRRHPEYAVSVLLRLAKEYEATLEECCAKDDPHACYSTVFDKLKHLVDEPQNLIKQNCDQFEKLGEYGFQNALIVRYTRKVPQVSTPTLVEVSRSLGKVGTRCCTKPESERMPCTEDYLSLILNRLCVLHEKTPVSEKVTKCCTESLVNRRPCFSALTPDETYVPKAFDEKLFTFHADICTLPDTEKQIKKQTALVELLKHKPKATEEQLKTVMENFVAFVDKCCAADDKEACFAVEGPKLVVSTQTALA

B1: single-chain phage antibody SC05-132 (scFv)
scFv: EVLESGGGLVQPGGSLRLSCSDSGFSFNNYWMTWVRQAPGKGLEWVANINRDGSDKYHVDSVEGRFTISRDNSKNSLYLQMNNLRADDAAVYFCARGGRTTSWYWRNWGQGTLVTVSSGTGGSGGTGSGTGGST[letters of about 100 residues not shown]GGGTKLEIKR
notes: also called scFv SC05-132
Turning to B1, in experiment [1], the “ELISA (OD492 nm)” value came out at 0.04 OD492 nm. Moreover, the binding result in experiment [2] was “no binding”.
